Measured values taken from ChEMBL document CHEMBL4888484, “Replenishing the malaria drug discovery pipeline: Screening and hit evaluation of the MMV Hit Generation Library 1 (HGL1) against asexual blood stage Plasmodium falciparum ,using a nano luciferase reporter read-out” (2022).
In all, about 150,000 compounds went through this assay and about 540 (0.36%) showed an effect of 50% or more. Some of the results follow.

Tested on: Plasmodium falciparum
Assay: Primary screen in NF54 nanoGlo assay, in single point, at 2uM, 72h; a lower Z score goes with more inhibition
Type: functional, Erythrocyte
Details: timepoint 72 hour

Question: Cc1ccc(C)c(S(=O)(=O)NC[C@H](Cc2ccccn2)C(=O)O)c1 was tested. Which “% Inhibition” value did it give?
Answer: -4%

Question: And the Z score?
Answer: 0.89

Question: How did the “% Inhibition” value turn out when CCn1c(CCc2ccc(NC(=O)c3ccc4c(c3)OCO4)cc2)nc2ccccc21 was run?
Answer: -16%

Question: And the Z score?
Answer: 1.63

Question: Which “% Inhibition” value does the source give for Cc1nc(C)c(S(=O)(=O)NC2CC(Cl)(Cl)C2)s1 here?
Answer: -1%

Question: And the Z score?
Answer: 0.19

Question: Which results are given for Cc1n[nH]c(C)c1NC(=O)c1cnn(C)c1?
Answer: % Inhibition: 30%; Z score: -3.5

Question: Which results are given for Cc1ccc(CNC(=O)[C@@H]2CCC(=O)NC(=O)N2)o1?
Answer: % Inhibition: -10%; Z score: 1.96

Question: For Cc1cccc(CC(=O)N2CC3(C[C@H](N4CCCC4)CO3)C2)c1, which “% Inhibition” value is on record?
Answer: -9%

Question: What about the Z score of the same compound?
Answer: 1.05

Question: With CC(C)NCCN1CCC[C@H](n2ccc(C(F)(F)F)n2)C1 as the compound, how does the “% Inhibition” value read?
Answer: -8%

Question: What about the Z score of the same compound?
Answer: 1.05

Question: OC1CC(c2cc(NC3CCCCCC3)ncn2)C1 (stereo not drawn) was tested. Which “% Inhibition” value did it give?
Answer: 3%

Question: And the Z score?
Answer: -0.55

Question: With CCC1=NO[C@H](C(=O)NCc2noc(-c3ccccc3)n2)C1 as the compound, how does the “% Inhibition” value read?
Answer: -14%

Question: What about the Z score of the same compound?
Answer: 1.84

Question: How did the “% Inhibition” value turn out when O=C(Cn1ncc(=O)c2ccccc21)NC1CC1 was run?
Answer: 0%

Question: What about the Z score of the same compound?
Answer: 0.08

Question: Which results are given for CCCC(=O)Nc1ccc2c(c1)CN(C(=O)c1ccc(F)c(Cl)c1)[C@H](C(=O)N(C)C)C2?
Answer: % Inhibition: -7%; Z score: 1.14

Question: For O=C([C@H]1OC[C@H]2CCC[C@H]21)N1Cc2cn[nH]c2C1, which “% Inhibition” value is on record?
Answer: -3%

Question: What about the Z score of the same compound?
Answer: 0.65

Question: Which results are given for CCN(CC)[C@@H](CNC(=O)CCNC(=O)C1CCCC1)c1ccco1?
Answer: % Inhibition: 5%; Z score: -0.82

Question: What does the source list for Cc1ncsc1CN(C)C(=O)Nc1cc(C(C)C)on1?
Answer: % Inhibition: 2%; Z score: -0.22

Question: With O=C(c1ccn(C(F)F)n1)N1CCO[C@H](C2CC2)C1 as the compound, how does the “% Inhibition” value read?
Answer: 1%

Question: And the Z score?
Answer: -0.25

Question: O=C(c1cc(C2CC2)no1)N(CC(F)F)c1ccc(F)cc1 was tested. Which “% Inhibition” value did it give?
Answer: -8%

Question: And the Z score?
Answer: 0.9

Question: Which “% Inhibition” value does the source give for O=C(c1cc(-c2ccccc2)[nH]n1)N1CCCO[C@@H](Cn2cccn2)C1 here?
Answer: -6%

Question: What about the Z score of the same compound?
Answer: 1.18

Question: What does the source list for Cc1nc(CNC(=O)NCCC(=O)NC2CCCC2)sc1C?
Answer: % Inhibition: 1%; Z score: -0.1

Question: O=C(C1CCCN1c1ccccc1)N1CCCC(c2nc(=O)[nH][nH]2)C1 (stereo not drawn) was tested. Which “% Inhibition” value did it give?
Answer: -10%

Question: And the Z score?
Answer: 1.59

Question: How did the “% Inhibition” value turn out when O=C1C[C@H](c2nc(-c3ccsc3)c[nH]2)CN1Cc1ccncc1 was run?
Answer: -14%

Question: And the Z score?
Answer: 1.59

Question: Which results are given for CN(CCn1ccnc1)Cc1ccc([C@@H]2CCCO2)s1?
Answer: % Inhibition: -3%; Z score: 0.45

Question: What does the source list for O=C([C@@H]1COc2cc(S(=O)(=O)N3CCCc4ccccc43)ccc2O1)N1CCOCC1?
Answer: % Inhibition: 3%; Z score: -0.33

Question: For Cc1ccnc(NC(=O)C2CC(=O)N(C3CCS(=O)(=O)C3)C2)c1 (stereo not drawn), which “% Inhibition” value is on record?
Answer: -5%

Question: And the Z score?
Answer: 0.96

Question: Which “% Inhibition” value does the source give for CCCc1ccccc1NC(=O)N1C[C@H]2CC[C@@H](C1)[C@H]2N(C)C here?
Answer: -11%

Question: And the Z score?
Answer: 1.01

Question: How did the “% Inhibition” value turn out when CCN1[C@H](C)CN(C(=O)C2CCCN(S(=O)(=O)CC)C2)C[C@@H]1C (stereo partly drawn) was run?
Answer: -10%

Question: And the Z score?
Answer: 1.33

Question: For Cc1noc(C)c1-c1n[nH]c2c1CN(c1nc3ccccc3o1)CC2, which “% Inhibition” value is on record?
Answer: -2%

Question: And the Z score?
Answer: 0.37

Question: With COc1ncc(CN2CCC(N3CCc4ccccc4C3)CC2)cn1 as the compound, how does the “% Inhibition” value read?
Answer: 14%

Question: And the Z score?
Answer: -1.81

Question: For CCNC(=O)c1c(OC)cc(=O)n2c1CCCCC2, which “% Inhibition” value is on record?
Answer: 1%

Question: What about the Z score of the same compound?
Answer: -0.13

Question: How did the “% Inhibition” value turn out when COCCC1(c2noc(C)n2)CCN(C(=O)c2cc(Cl)ccc2F)CC1 was run?
Answer: -2%

Question: What about the Z score of the same compound?
Answer: 0.2

Question: With O=C(c1ccc(-c2ccccc2)[nH]c1=O)N1C[C@H]2CCC[C@@]2(CO)C1 as the compound, how does the “% Inhibition” value read?
Answer: -6%

Question: And the Z score?
Answer: 1.19

Question: Which results are given for Cc1nc2c(C)cccn2c1[C@H](Nc1ccc(Cl)cc1)c1ccccc1?
Answer: % Inhibition: -10%; Z score: 1.49

Question: COCCN(C)CC(=O)N1CCC(C)(C#N)CC1 was tested. Which “% Inhibition” value did it give?
Answer: -10%

Question: What about the Z score of the same compound?
Answer: 1.83

Question: What does the source list for Cc1ccc(C(=O)Nc2ccccc2)c(C2CCN(C(=O)c3ccc(F)cc3)CC2)n1?
Answer: % Inhibition: -17%; Z score: 3.2

Question: How did the “% Inhibition” value turn out when CN(C(=O)c1cncc(Br)c1)C1(C#N)CCC1 was run?
Answer: -7%

Question: And the Z score?
Answer: 1.2

Question: CCc1cn[nH]c1[C@H]1CCCN(C(=O)CCn2nc(C)c(C(C)=O)c2C)C1 was tested. Which “% Inhibition” value did it give?
Answer: 10%

Question: What about the Z score of the same compound?
Answer: -1.21

Question: How did the “% Inhibition” value turn out when CCCC(C)S(=O)(=O)NC(=O)C(C)c1ccccc1 (stereo not drawn) was run?
Answer: 3%

Question: What about the Z score of the same compound?
Answer: -0.35

Question: CC1CN(C(CNCc2nccn2C)c2cccs2)CCO1 (stereo not drawn) was tested. Which “% Inhibition” value did it give?
Answer: -8%

Question: What about the Z score of the same compound?
Answer: 0.86

Question: Which “% Inhibition” value does the source give for C[C@H](NC(=O)N1CCCC(c2ccc(F)c(F)c2)C1)c1ncccc1F (stereo partly drawn) here?
Answer: -12%

Question: What about the Z score of the same compound?
Answer: 1.96

Question: How did the “% Inhibition” value turn out when COC(=O)c1nc(NC(=O)c2ccncc2)sc1-c1ccccc1OC was run?
Answer: -3%

Question: What about the Z score of the same compound?
Answer: 0.45

Question: Which “% Inhibition” value does the source give for COC[C@H](NC(=O)c1ccc(C)s1)c1ccnn1C here?
Answer: -9%

Question: And the Z score?
Answer: 1.61

Question: Cc1ccn2ncnc2c1NC(=O)COC[C@H]1CCCO1 was tested. Which “% Inhibition” value did it give?
Answer: -6%

Question: What about the Z score of the same compound?
Answer: 1.04

Question: For CN(C)c1ccc(CNS(=O)(=O)c2ccnn2C)cc1, which “% Inhibition” value is on record?
Answer: -5%

Question: What about the Z score of the same compound?
Answer: 0.67

Question: What does the source list for O=C(NCCC1CCCCC1)N1CCCCC1?
Answer: % Inhibition: 14%; Z score: -1.78

Question: How did the “% Inhibition” value turn out when O=C(NCc1cccnc1N1CCOCC1)c1ccco1 was run?
Answer: -9%

Question: What about the Z score of the same compound?
Answer: 1.27
